# Test results: the supplement of paper PMC8728848
# The other results are listed elsewhere or left out.
# How the values were obtained:
# Assay in all cases: glycan array binding signal (z-score within array); higher = stronger binding
# Conditions in all cases: glycan notation: IUPAC condensed, linker removed
# [1] = target: Neu5Ac(a2-3)Gal(b1-4)GlcNAc(b1-3)[Neu5Ac(a2-3)Gal(b1-4)GlcNAc(b1-6)]GalNAc
# In short: (§1)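 The Consortium for Functional Glycomics database supplied 3228 glycan arrays, of which those lacking an available protein sequence were dropped. The binding signal, a within-array Z-score, was averaged across arrays of the same protein sequence and across linkers. Negative scores can be read as non-binding.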
# [2] = target: Neu5Ac(a2-3)Gal(b1-4)GlcNAc(b1-6)GalNAc
# In short: as §1
# [3] = target: Neu5Ac(a2-3)Gal(b1-4)GlcNAc(b1-6)[Gal(b1-3)]GalNAc
# In short: as §1
# [4] = target: Neu5Ac(a2-3)Gal(b1-4)GlcNAc(b1-6)[Neu5Ac(a2-3)Gal(b1-3)]GalNAc
# In short: as §1
# [5] = target: Neu5Ac(a2-3)Gal(b1-4)GlcNAc6S
# In short: as §1
# [6] = target: Neu5Ac(a2-3)Gal(b1-4)[Fuc(a1-3)]GlcNAc
# In short: as §1
# [7] = target: Neu5Ac(a2-3)Gal(b1-4)[Fuc(a1-3)]GlcNAc(b1-2)Man
# In short: as §1
# [8] = target: Neu5Ac(a2-3)Gal(b1-4)[Fuc(a1-3)]GlcNAc(b1-3)Gal
# In short: as §1
# [9] = target: Neu5Ac(a2-3)Gal(b1-4)[Fuc(a1-3)]GlcNAc(b1-3)Gal(b1-4)GlcNAc
# In short: as §1
# [10] = target: Neu5Ac(a2-3)Gal(b1-4)[Fuc(a1-3)]GlcNAc(b1-3)Gal(b1-4)[Fuc(a1-3)]GlcNAc(b1-3)Gal(b1-4)[Fuc(a1-3)]GlcNAc
# In short: as §1
# [11] = target: Neu5Ac(a2-3)Gal(b1-4)[Fuc(a1-3)]GlcNAc(b1-3)GalNAc
# In short: as §1
# [12] = target: Neu5Ac(a2-3)Gal(b1-4)[Fuc(a1-3)]GlcNAc(b1-6)[Gal(b1-3)]GalNAc
# In short: as §1
# [13] = target: Neu5Ac(a2-3)Gal(b1-4)[Fuc(a1-3)]GlcNAc(b1-6)[Neu5Ac(a2-3)Gal(b1-3)]GalNAc
# In short: as §1
# [14] = target: Neu5Ac(a2-3)Gal(b1-4)[Fuc(a1-3)]GlcNAc6S
# In short: as §1
# [15] = target: Neu5Ac(a2-3)Gal6S(b1-4)GlcNAc
# In short: as §1
# [16] = target: Neu5Ac(a2-3)Gal6S(b1-4)[Fuc(a1-3)]GlcNAc
# In short: as §1
# [17] = target: Neu5Ac(a2-3)GalNAc
# In short: as §1
# [18] = target: Neu5Ac(a2-3)GalNAc(b1-4)GlcNAc
# In short: as §1
# [19] = target: Neu5Ac(a2-3)[GalNAc(b1-4)]Gal(b1-4)Glc
# In short: as §1
# [20] = target: Neu5Ac(a2-3)[GalNAc(b1-4)]Gal(b1-4)GlcNAc
# In short: as §1
# [21] = target: Neu5Ac(a2-3)[GalNAc(b1-4)]Gal(b1-4)GlcNAc(b1-3)GalNAc
# In short: as §1
# [22] = target: Neu5Ac(a2-3)[Neu5Ac(a2-6)]GalNAc
# In short: as §1
# [23] = target: Neu5Ac(a2-6)Gal
# In short: as §1
# [24] = target: Neu5Ac(a2-6)Gal(b1-3)GlcNAc(b1-3)[Gal(b1-4)GlcNAc(b1-6)]Gal(b1-4)Glc
# In short: as §1
# [25] = target: Neu5Ac(a2-6)Gal(b1-4)Glc
# In short: as §1
# [26] = target: Neu5Ac(a2-6)Gal(b1-4)GlcNAc
# In short: as §1
# [27] = target: Neu5Ac(a2-6)Gal(b1-4)GlcNAc(b1-2)Man
# In short: as §1
# [28] = target: Neu5Ac(a2-6)Gal(b1-4)GlcNAc(b1-2)Man(a1-3)Man(b1-4)GlcNAc(b1-4)GlcNAc
# In short: as §1
# [29] = target: Neu5Ac(a2-6)Gal(b1-4)GlcNAc(b1-2)Man(a1-3)[Gal(b1-4)GlcNAc(b1-2)Man(a1-6)]Man(b1-4)GlcNAc(b1-4)GlcNAc
# In short: as §1
# [30] = target: Neu5Ac(a2-6)Gal(b1-4)GlcNAc(b1-2)Man(a1-3)[GlcNAc(b1-2)Man(a1-6)]Man(b1-4)GlcNAc(b1-4)GlcNAc
# In short: as §1
# [31] = target: Neu5Ac(a2-6)Gal(b1-4)GlcNAc(b1-2)Man(a1-3)[GlcNAc(b1-4)][Neu5Ac(a2-6)Gal(b1-4)GlcNAc(b1-2)Man(a1-6)]Man(b1-4)GlcNAc(b1-4)GlcNAc
# In short: as §1
# [32] = target: Neu5Ac(a2-6)Gal(b1-4)GlcNAc(b1-2)Man(a1-3)[Man(a1-6)]Man(b1-4)GlcNAc(b1-4)GlcNAc
# In short: as §1
# [33] = target: Neu5Ac(a2-6)Gal(b1-4)GlcNAc(b1-2)Man(a1-3)[Neu5Ac(a2-3)Gal(b1-4)GlcNAc(b1-2)Man(a1-6)]Man(b1-4)GlcNAc(b1-4)GlcNAc
# In short: as §1
# [34] = target: Neu5Ac(a2-6)Gal(b1-4)GlcNAc(b1-2)Man(a1-3)[Neu5Ac(a2-6)Gal(b1-4)GlcNAc(b1-2)Man(a1-6)]Man(b1-4)GlcNAc(b1-4)GlcNAc
# In short: as §1
# [35] = target: Neu5Ac(a2-6)Gal(b1-4)GlcNAc(b1-2)Man(a1-3)[Neu5Ac(a2-6)Gal(b1-4)GlcNAc(b1-2)Man(a1-6)]Man(b1-4)GlcNAc(b1-4)[Fuc(a1-6)]GlcNAc
# In short: as §1
# [36] = target: Neu5Ac(a2-6)Gal(b1-4)GlcNAc(b1-2)Man(a1-6)Man(b1-4)GlcNAc(b1-4)GlcNAc
# In short: as §1
# [37] = target: Neu5Ac(a2-6)Gal(b1-4)GlcNAc(b1-2)Man(a1-6)[Gal(b1-4)GlcNAc(b1-2)Man(a1-3)]Man(b1-4)GlcNAc(b1-4)GlcNAc
# In short: as §1
# [38] = target: Neu5Ac(a2-6)Gal(b1-4)GlcNAc(b1-2)Man(a1-6)[GlcNAc(b1-2)Man(a1-3)]Man(b1-4)GlcNAc(b1-4)GlcNAc
# In short: as §1
# [39] = target: Neu5Ac(a2-6)Gal(b1-4)GlcNAc(b1-2)Man(a1-6)[Man(a1-3)]Man(b1-4)GlcNAc(b1-4)GlcNAc
# In short: as §1
# [40] = target: Neu5Ac(a2-6)Gal(b1-4)GlcNAc(b1-2)[Neu5Ac(a2-6)Gal(b1-4)GlcNAc(b1-4)]Man(a1-3)[GlcNAc(b1-4)][Neu5Ac(a2-6)Gal(b1-4)GlcNAc(b1-2)[Neu5Ac(a2-6)Gal(b1-4)GlcNAc(b1-6)]Man(a1-6)]Man(b1-4)GlcNAc(b1-4)GlcNAc
# In short: as §1
# [41] = target: Neu5Ac(a2-6)Gal(b1-4)GlcNAc(b1-2)[Neu5Ac(a2-6)Gal(b1-4)GlcNAc(b1-4)]Man(a1-3)[GlcNAc(b1-4)][Neu5Ac(a2-6)Gal(b1-4)GlcNAc(b1-4)Man(a1-6)]Man(b1-4)GlcNAc(b1-4)GlcNAc
# In short: as §1
# [42] = target: Neu5Ac(a2-6)Gal(b1-4)GlcNAc(b1-2)[Neu5Ac(a2-6)Gal(b1-4)GlcNAc(b1-6)]Man(a1-6)[Neu5Ac(a2-6)Gal(b1-4)GlcNAc(b1-2)Man(a1-3)][GlcNAc(b1-4)]Man(b1-4)GlcNAc(b1-4)GlcNAc
# In short: as §1
# [43] = target: Neu5Ac(a2-6)Gal(b1-4)GlcNAc(b1-3)Gal(b1-3)GlcNAc
# In short: as §1
# [44] = target: Neu5Ac(a2-6)Gal(b1-4)GlcNAc(b1-3)Gal(b1-4)GlcNAc
# In short: as §1
# [45] = target: Neu5Ac(a2-6)Gal(b1-4)GlcNAc(b1-3)Gal(b1-4)GlcNAc(b1-2)Man(a1-3)[Neu5Ac(a2-6)Gal(b1-4)GlcNAc(b1-3)Gal(b1-4)GlcNAc(b1-2)Man(a1-6)]GalNAc
# In short: as §1
# [46] = target: Neu5Ac(a2-6)Gal(b1-4)GlcNAc(b1-3)Gal(b1-4)GlcNAc(b1-3)Gal(b1-4)GlcNAc
# In short: as §1
binder,measurement,setting,value
Epa1 (Candida glabrata) (protein) MGSSHHHHHHSSGLVPRGSHMTSSNDISLASKDPTTFPLGCSPDITTPKKGLSMELYSYDFRKKGSYPCWDAAYLDPNYPRTGYKSHRLLAKVDGVTGNINFYYHATKGCTPQLGHLPASYNYPKPLTMTNFTMLLYGYFRPKVTGFHTFTISADDLLFVNFGAGNAFDCCRRDSSADHFGNYQAYAIWGSKTAKDELTVHLDAGVYYPIRLFYNNREYDGALSFTFKTESNENTVSDFSEYFFSLDDTEEGCPGLISYD,glycan array binding signal (z-score),[1],-0.315
same,glycan array binding signal (z-score),[2],-0.313
same,glycan array binding signal (z-score),[3],1.45
same,glycan array binding signal (z-score),[4],-0.3
same,glycan array binding signal (z-score),[5],-0.255
same,glycan array binding signal (z-score),[6],-0.312
same,glycan array binding signal (z-score),[7],-0.346
same,glycan array binding signal (z-score),[8],-0.283
same,glycan array binding signal (z-score),[9],-0.214
same,glycan array binding signal (z-score),[10],-0.296
same,glycan array binding signal (z-score),[11],0.05
same,glycan array binding signal (z-score),[12],0.148
same,glycan array binding signal (z-score),[13],-0.131
same,glycan array binding signal (z-score),[14],-0.288
same,glycan array binding signal (z-score),[15],-0.298
same,glycan array binding signal (z-score),[16],-0.351
same,glycan array binding signal (z-score),[17],-0.312
same,glycan array binding signal (z-score),[18],-0.31
same,glycan array binding signal (z-score),[19],-0.294
same,glycan array binding signal (z-score),[20],-0.327
same,glycan array binding signal (z-score),[21],-0.312
same,glycan array binding signal (z-score),[22],-0.328
same,glycan array binding signal (z-score),[23],-0.255
same,glycan array binding signal (z-score),[24],0.218
same,glycan array binding signal (z-score),[25],-0.284
same,glycan array binding signal (z-score),[26],-0.312
same,glycan array binding signal (z-score),[27],-0.31
same,glycan array binding signal (z-score),[28],-0.278
same,glycan array binding signal (z-score),[29],-0.219
same,glycan array binding signal (z-score),[30],-0.304
same,glycan array binding signal (z-score),[31],-0.32
same,glycan array binding signal (z-score),[32],-0.271
same,glycan array binding signal (z-score),[33],-0.332
same,glycan array binding signal (z-score),[34],-0.24
same,glycan array binding signal (z-score),[35],-0.272
same,glycan array binding signal (z-score),[36],-0.281
same,glycan array binding signal (z-score),[37],-0.14
same,glycan array binding signal (z-score),[38],-0.269
same,glycan array binding signal (z-score),[39],-0.287
same,glycan array binding signal (z-score),[40],-0.274
same,glycan array binding signal (z-score),[41],-0.284
same,glycan array binding signal (z-score),[42],-0.255
same,glycan array binding signal (z-score),[43],-0.316
same,glycan array binding signal (z-score),[44],-0.337
same,glycan array binding signal (z-score),[45],-0.197
same,glycan array binding signal (z-score),[46],-0.267
